# Measured values from PubChem BioAssay (NCATS).
# The shares of active, inactive and inconclusive entries below differ from those in the screen. For part of these data: Where the call is inconclusive, the potency comes from a doubtful curve fit. Calls of active or inactive are those of the source. Unless noted, calls follow the shape of the dose curve; as a rule, active = well fitted curve in the direction sought with a large enough effect; inconclusive = small, poorly fitted or top-dose-only effect, or another doubt; inactive = no such curve, though single readings can be large; an effect the other way counts as inactive or inconclusive.
# Experiments:
# [1] = Cell Viability - BJ (AID 421; calls by dose curve;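 also: potency is read from the fitted curve at half-maximal effect; cells exposed to compound for 40 hours at 37 °C before readout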); settings: BJ fibroblast viability, qHTS
# Summary of the method: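 Cytotoxicity as drop in intracellular ATP (CellTiter-Glo, 20 min RT) after 40 hr compound exposure of BJ fibroblasts at 37 °C. Titrations scaled between DMSO and 100 uM tamoxifen, Hill-fitted for AC50.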
# [2] = Cell Viability - Jurkat (AID 426;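 active = dose-dependent loss of cell ATP signal giving a full or clear fitted curve, ranked by lower potency value; inconclusive = weak partial curve or response only at the top dose; inactive = no loss of viability signal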; also: potency is read from the fitted curve at half-maximal effect); settings: qHTS
# Summary of the method: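 Jurkat (Clone E6-1) cells, 5000/well in complete medium, exposed to compounds for 40 hr at 37C; intracellular ATP measured by CellTiter-Glo luminescence after 20 min at room temperature. AC50 from Hill fits.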
# [3] = Cell Viability - Hek293 (AID 427;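 active = compounds whose dose-response curve shows a full or clear partial loss of cell viability, called from curve shape rather than a numeric limit; inconclusive = weak partial curves or an effect only at the top dose; inactive = no dose-dependent loss of viability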;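 also: potency is read from the fitted curve at half-maximal effect; cells exposed to compound for 40 hours at 37 °C before reading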); settings: qHTS
# Summary of the method: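 Luminescent ATP content (CellTiter-Glo, 20 min at room temperature) was measured after a 40 hr, 37 °C compound exposure of HEK293 cells. AC50 values came from Hill-equation fits of qHTS concentration-response data normalized to DMSO and 100 uM tamoxifen.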
# [4] = Cell Viability - SK-N-SH (AID 435; calls by dose curve;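 also: potency is read from the fitted curve at half-maximal effect; compound exposure lasted 40 h at 37 °C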); settings: SK-N-SH neuroblastoma cell viability qHTS
# Summary of the method: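 SK-N-SH human neuroblastoma cells (1500/well) were exposed to compounds in complete medium for 40 h at 37 °C, and intracellular ATP was then measured by CellTiter-Glo luminescence. AC50 was taken from Hill fits, normalized to DMSO and 100 uM tamoxifen.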
# [5] = Cell Viability - N2a (AID 540); settings: N2a mouse neuroblastoma cell viability; activity change, negative = cytotoxicity: at 92.2 µM (top of the series); also: potency is read from the fitted curve at half-maximal effect; nearly all actives have a fitted effect of over 45% in size
# Summary of the method: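 Mouse neuroblastoma N2a cells, 1500/well, exposed to compounds 40 h at 37 °C in complete medium. Viability measured as cellular ATP by CellTiter-Glo luminescence; AC50 from Hill fits of concentration-response.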
# [6] = Cell Viability - NIH 3T3 (AID 541); settings: NIH 3T3 cell viability, qHTS; activity change, negative = cytotoxicity: at 92.2 µM (top of the series);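 also: plate controls were DMSO alone for no effect and tamoxifen positive control for full effect; nearly all actives have a fitted effect of over 25% in size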
# Summary of the method: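 Mouse NIH 3T3 fibroblasts, 1000 cells/well, rested 5 hr at 37 °C, then exposed to compound for 40 hr at 37 °C in complete medium. Viability read as intracellular ATP by CellTiter-Glo luminescence; AC50 from Hill-equation fits of concentration-response data.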
# [7] = Cell Viability - HUV-EC-C (AID 542); also: potency is read from the fitted curve at half-maximal effect; nearly all actives have a fitted effect of over 35% in size
# Summary of the method: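 HUV-EC-C human vascular endothelial cells, 1000/well, exposed to compound for 40 hr at 37 °C in complete medium. Intracellular ATP was read by CellTiter-Glo luminescence. AC50 came from Hill-equation fits of concentration-response data.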
# [8] = Cell Viability - Renal Proximal Tubule (AID 545); settings: renal proximal tubule cells viability, primary cells of rat origin; activity change, negative = cytotoxicity: at 91.7 µM (top of the series); also: nearly all actives have a fitted effect of over 40% in size
# Summary of the method: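 Primary rat renal proximal tubule cells (1000/well) were treated with compounds for 40 hr at 37 °C in complete medium. Intracellular ATP was measured by CellTiter-Glo luminescence, and AC50 values came from Hill-equation fits of concentration-response data.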
# [9] = Cell Viability - Mesenchymal (AID 546); settings: mesenchymal cells viability, qHTS; activity change, negative = cytotoxicity: at 91.7 µM (top of the series);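 also: cells exposed to compound for 40 hours before reading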
# Summary of the method: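 Normal human renal glomerulus-derived kidney mesenchymal cells, 1000 per well in complete medium, were treated with compounds for 40 hr at 37 °C. Viability was read as intracellular ATP by CellTiter-Glo luminescence; AC50 values came from Hill-equation fits of qHTS concentration-response data.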
# [10] = Cellular Toxicity (caspase-3) Jurkat (AID 655); settings: Jurkat caspase-3 activation, luminescence; caspase-3 activation: at 92.2 µM (top of the series), DMSO = 0%, tamoxifen = 100%;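 also: cells exposed to compound for 16 h at 37 °C before reading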
# Summary of the method: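 Jurkat cells (5000/well) in complete medium were treated with compounds for 16 hr at 37 °C, then Caspase-Glo 3/7 luminescence was read after 20 min at room temperature. Data normalized to DMSO (basal) and 100 uM tamoxifen (100%); AC50 from Hill fit.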
# [11] = Cellular Toxicity (caspase-3) SHSY5Y (AID 657); also: potency is read from the fitted curve at half-maximal effect
# Summary of the method: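 SH-SY5Y human neuroblastoma cells (1500/well) were treated with compounds for 16 h at 37 °C, then Caspase-Glo 3/7 luminescence was read after 1 h at room temperature. Data normalized to DMSO and 10 uM staurosporine; AC50 from Hill fits.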
# [12] = Cellular Toxicity (caspase-3) SK-N-SH (AID 661); settings: SK-N-SH caspase-3 activation, qHTS; caspase-3 activation: at 91.7 µM (top of the series), DMSO as zero, staurosporine as full;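 also: 0% = DMSO basal and 100% = 10 µM staurosporine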
# Summary of the method: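 Human SK-N-SH neuroblastoma cells, 1500/well, were exposed to compounds for 16 hours at 37 °C. Caspase-Glo 3/7 luminescence was normalized to DMSO (basal) and 10 uM staurosporine (100%), and AC50 came from a Hill fit.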
# [13] = Cellular Toxicity (caspase-3) H-4-II-E (AID 663); settings: H-4-II-E rat hepatoma; Potency: caspase-3 activation; caspase-3 activation: at 92.2 µM (top of the series), scaled: DMSO 0%, 100 µM tamoxifen 100%;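 also: cells exposed to compound for 16 hr before readout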
# Summary of the method: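 Luminescence from caspase-cleaved aminoluciferin substrate, read 20 min after reagent addition, reports caspase 3/7 activation in rat H-4-II-E cells after 16 hr compound exposure. Normalized to DMSO (basal) and 100 uM tamoxifen (100%); AC50 from Hill fits.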
# [14] = MultiTox-Fluor Cytotoxicity Assay - LYMP1-001 - Live Cells (AID 947); also: potency is read from the fitted curve at half-maximal effect
# [15] = Cell Viability - LYMP1-002 - Assay at 16 hr (AID 948); also: potency is read from the fitted curve at half-maximal effect
# Summary of the method: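 Human lymphoblastoid cells (LYMP1-002), 2500/well, were preincubated 5 hr at 37 C, then exposed to compounds for 16 hr at 37 C in complete medium. Cellular ATP was read by CellTiter-Glo luminescence after 30 min at room temperature; AC50 from Hill fits.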
# [16] = MultiTox-Fluor Cytotoxicity Assay - LYMP1-002 - Live Cells (AID 955); also: potency is read from the fitted curve at half-maximal effect
# Summary of the method: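 Human lymphoblastoid LYMP1-002 cells, 2500/well, treated 16 h at 37 C in complete medium. Live-cell protease activity via GF-AFC fluorescence (Ex/Em 405/510) after 60 min reagent incubation; AC50 from Hill fits.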
# [17] = MultiTox-Fluor Cytotoxicity Assay - LYMP1-002 - Dead Cells (AID 960); settings: LYMP1-002 lymphoblastoid cells, dead-cell protease fluorescence; cytotoxicity (dead cells): at 46.1 µM (top of the series); also: potency is read from the fitted curve at half-maximal effect; nearly all actives have a fitted effect of over 60% in size
# Summary of the method: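 Human lymphoblastoid LYMP1-002 cells, 2500/well, treated 16 h at 37 C; dead-cell protease cleavage of bis-AAF-R110 read by fluorescence (485/520); normalized to DMSO and 15 uM tetraoctylammonium bromide; AC50 from Hill fit.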
# [18] = MultiTox-Fluor Cytotoxicity Assay - LYMP1-003 - Live Cells (AID 962); also: potency is read from the fitted curve at half-maximal effect
# Summary of the method: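 LYMP1-003 lymphoblastoid cells, 2500/well in complete medium, treated 16 h at 37 C; live-cell protease cleavage of GF-AFC read by fluorescence (Ex/Em 405/510) after 60 min reagent; AC50 from Hill fits of concentration-response.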
# [19] = Cell Viability - LYMP1-003 - Assay at 40 hr (AID 964); also: potency is read from the fitted curve at half-maximal effect; nearly all actives have a fitted effect of over 60% in size
# Summary of the method: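 LYMP1-003 human lymphoblastoid cells, 2500/well, preincubated 5 h at 37 C, then treated with compound for 40 h at 37 C. Intracellular ATP read by CellTiter-Glo luminescence after 30 min at room temperature; AC50 from Hill-equation fits.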
# [20] = Cell Viability - LYMP2-003 (AID 965);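 also: potency is read from the fitted curve at half-maximal effect; cells exposed to compounds for 24 h before reading; nearly all actives have a fitted effect of over 50% in size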
# Summary of the method: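 Human lymphoblastoid cells (2500/well) were pre-incubated 5 hr at 37 C, then exposed to compounds over a concentration range for 24 hr at 37 C. Intracellular ATP was read by CellTiter-Glo luminescence; AC50 came from Hill-equation fits.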
# [21] = Cell Viability - LYMP2-004 (AID 966); also: potency is read from the fitted curve at half-maximal effect; nearly all actives have a fitted effect of over 65% in size
# Summary of the method: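 Lymphoblastoid LYMP2-004 cells, 2500 per well, were preincubated for 5 hr and then treated with compound for 24 h at 37 C in complete medium. Viability was read as cellular ATP by CellTiter-Glo luminescence, and AC50 values were taken from Hill fits to concentration-response data.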
# [22] = Cell Viability - LYMP2-009 (AID 968); also: potency is read from the fitted curve at half-maximal effect; nearly all actives have a fitted effect of over 55% in size
# [23] = Cell Viability - LYMP2-011 (AID 969); also: potency is read from the fitted curve at half-maximal effect; nearly all actives have a fitted effect of over 60% in size
# Summary of the method: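 2500 cells/well in complete medium, compound-treated 24 h at 37 C. Viability read as intracellular ATP by CellTiter-Glo luminescence after 30 min at room temperature. AC50 from Hill fits of qHTS concentration-response data.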
# [24] = Cell Viability - LYMP2-013 (AID 970); settings: LYMP2-013 lymphoblastoid cells viability; activity change, negative = cytotoxic: at 92.2 µM (top of the series); also: potency is read from the fitted curve at half-maximal effect; nearly all actives have a fitted effect of over 55% in size
# Summary of the method: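 Human lymphoblastoid LYMP2-013 cells, 2500/well, treated 24 h at 37 C in complete medium; viability as intracellular ATP by CellTiter-Glo luminescence after 30 min. AC50 from Hill fits of qHTS concentration-response.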
# [25] = Cell Viability - LYMP2-015 (AID 971); also: potency is read from the fitted curve at half-maximal effect; nearly all actives have a fitted effect of over 55% in size
# Summary of the method: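 LYMP2-015 human lymphoblastoid cells (2500/well) in complete medium, compound-treated 24 h at 37 C; viability read as cellular ATP by CellTiter-Glo luminescence after 30 min at room temperature. AC50 from Hill-equation fits of qHTS concentration-response data.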
# [26] = Cell Viability - LYMP2-017 (AID 972); also: potency is read from the fitted curve at half-maximal effect; nearly all actives have a fitted effect of over 55% in size
# Summary of the method: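 LYMP2-017 human lymphoblastoid cells (2500/well) settled 5 hr at 37 C, then exposed to compound 24 hr at 37 C in complete medium. Viability taken as intracellular ATP by CellTiter-Glo luminescence after 30 min at RT; AC50 from Hill fits.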
# [27] = Cell Viability - LYMP2-019 (AID 973)
# Summary of the method: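 Human lymphoblastoid LYMP2-019 cells (2500/well) preincubated 5 h at 37 C, then treated 24 h at 37 C in complete medium. Viability by CellTiter-Glo ATP luminescence after 30 min at room temperature; AC50 from Hill fits.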
# Tags tell the direction and shape of the fitted curve.
compound,measurement,setting,value
CN(C)c1ccc(C(=N)c2ccc(N(C)C)cc2)cc1,Potency,[1],inconclusive: 85.9 µM [partial curve]
same,Potency,[2],inconclusive: 32.7 µM [partial curve]
same,Potency,[3],inconclusive: 48.4 µM [partial curve]
same,Potency,[4],inconclusive: 3.47 mM [partial curve]
same,Potency,[5],active: 31.6 µM
same,"activity change, negative = cytotoxicity",[6],inconclusive: -76.3%
same,Potency,[7],"inconclusive: 39.8 µM [falling, partial curve]"
same,"activity change, negative = cytotoxicity",[8],inconclusive: -50.5%
same,"activity change, negative = cytotoxicity",[9],inconclusive: -42.4%
same,caspase-3 activation,[10],inconclusive: 58.7%
same,Potency,[11],"inconclusive: 39.8 µM [rising, partial curve]"
same,caspase-3 activation,[12],inconclusive: 42.2%
same,caspase-3 activation,[13],inconclusive: 32.8%
same,Potency,[14],"inconclusive: 15.8 µM [cytotoxic, partial curve]"
same,Potency,[15],"inconclusive: 39.8 µM [cytotoxic, partial curve]"
same,Potency,[16],"inconclusive: 12.6 µM [cytotoxic, partial curve]"
same,Potency,[17],active: 15.8 µM
same,Potency,[18],"inconclusive: 31.6 µM [cytotoxic, partial curve]"
same,Potency,[19],"inconclusive: 12.6 µM [cytotoxic, full curve]"
same,Potency,[20],"inconclusive: 31.6 µM [cytotoxic, partial curve]"
same,Potency,[21],"inconclusive: 31.6 µM [cytotoxic, partial curve, poor fit]"
same,Potency,[22],"inconclusive: 39.8 µM [cytotoxic, partial curve]"
same,Potency,[23],"inconclusive: 39.8 µM [cytotoxic, partial curve]"
same,Potency,[24],"inconclusive: 50.1 µM [cytotoxic, partial curve, poor fit]"
same,Potency,[25],"inconclusive: 39.8 µM [cytotoxic, partial curve, poor fit]"
same,Potency,[26],"inconclusive: 39.8 µM [cytotoxic, partial curve]"
same,Potency,[27],"inconclusive: 39.8 µM [cytotoxic, partial curve]"
